The campaign covered roughly 350,000 compounds. About 9,900 (2.8%) were called active. Inconclusive results, whose numbers are uncertain, are shown with a selection of clear calls. Calls follow the shape of the dose curve; as a rule, active = well fitted activation curve with a large enough effect; inconclusive = small, poorly fitted or top-dose-only effect; inactive = no such curve, though single readings can be large or run the other way. No potency is given beside an inconclusive call; the fits are too rough.
Experiment: A quantitative high throughput screen for small molecules that induce DNA re-replication in MCF 10a normal breast cells. Also: nearly all actives have a fitted effect of over 50% in size.
Conditions: MCF 10A DNA re-replication, Hoechst nuclear intensity, 48 h; series mostly up to 46.1 µM
Potency is read from the fitted curve at half-maximal effect; tags tell the direction and shape of the fitted curve.

Row | Compound | Potency
1 | Cc1ccc(S(=O)(=O)N2CCN(C(=O)c3cc(=O)[nH]c4ccccc34)CC2)c(C)c1 | inconclusive [activator, partial curve, poor fit]
2 | Fc1ccc(-c2nc3ccccn3c2NCc2ccc3c(c2)OCO3)cc1 | active: 11.2 µM
3 | CO/N=C(/CS(=O)(=O)c1ccc(Br)cc1)c1ccc(OC)cc1 | inconclusive [activator, single point]
4 | COc1ccc2[nH]c(=O)c(CN(C(=O)c3ccccn3)C3CCCCC3)cc2c1 | inconclusive [activator, single point]
5 | Cc1ccc2nc(NC(=O)CSc3ncnc4c3oc3ccccc34)sc2c1 | inconclusive [activator, single point]
6 | COc1ccc(N2CCN(C(=O)c3c(-c4ccccc4)noc3C)CC2)cc1 | inactive
7 | FC(F)(F)c1cc(-c2cccs2)nc2cc(-c3ccccc3)nn12 | active: 16.4 µM
8 | Cc1ccc(NC(=S)NNC(=O)c2ccc(N3CCOCC3)c([N+](=O)[O-])c2)cc1Cl | inconclusive [activator, single point]
9 | COc1ccccc1NC(=O)Nc1nc(CC(=O)Nc2cc(F)ccc2F)cs1 | inconclusive [activator, single point]
10 | Cc1ccc(O)c(N=Cc2cc(Cc3ccccc3)cc([N+](=O)[O-])c2O)c1 | inconclusive [activator, partial curve]
11 | c1ccc(CNc2c(-c3cccc(SC4CCCCC4)c3)nc3ccccn23)cc1 | active: 18.4 µM
12 | COC(=O)C(Cc1ccc(O)cc1)NC(=O)C(C)Oc1ccccc1 (stereo unspecified) | inconclusive [activator, single point]
13 | Clc1cccc(-c2nc3nc4ccccc4nc3n2Cc2ccco2)c1 | inconclusive [activator, single point]
14 | COc1ccc2c(c1)C(CC(=O)NN)CCC2 (stereo unspecified) | active: 2.31 µM
15 | c1csc(-c2nc(NCC3CCCO3)c3ccccc3n2)c1 (stereo unspecified) | inactive
16 | CC1(C)CC(N=c2cc(-c3ccccc3)oc3ccc(Cl)cc23)CC(C)(C)N1 | inconclusive [activator, single point]
17 | C=CCNC(=O)CSc1nc2sc(C)c(C)c2c(=O)[nH]1 | inconclusive [activator, partial curve, poor fit]
18 | COCC(C)NC(=O)CSc1nc2ccccc2n1CCc1ccccc1 (stereo unspecified) | inconclusive [activator, partial curve, poor fit]
19 | COc1cc(C(=O)Oc2c(CN3CCOCC3)cc(Cl)c3cccnc23)cc(OC)c1OC | inconclusive [activator, single point]
20 | NS(=O)(=O)c1ccc(CCNC(=O)c2cc(-c3ccc(Br)cc3)nc3ccccc23)cc1 | inconclusive [activator, single point]
21 | O=C(COC(=O)Cc1c(F)cccc1Cl)NCCC1=CCCCC1 | inactive
22 | CC(C)n1cnc2c(Nc3cccc(Cl)c3)nc(NCCCO)nc21 | inactive

Row | Compound | Potency
23 | COc1ccc(Cl)cc1Nc1nc(-c2sc(NC(=O)CC(C)C)nc2C)cs1 | inconclusive [activator, single point]
24 | COc1ccc(NS(=O)(=O)c2ccc3nc(COc4ccc(Cl)c(C)c4)[nH]c3c2)cc1 | inconclusive [activator, single point]
25 | O=[N+]([O-])c1ccc(-c2nn(-c3ccccc3)cc2/C=N/n2c(-c3ccncc3)n[nH]c2=S)cc1 | inconclusive [activator, full curve, poor fit]
26 | COc1cc(NS(=O)(=O)c2ccc(NC(=S)NC(=O)c3ccc(Br)cc3)cc2)ncn1 | inconclusive [activator, single point]
27 | O=c1[nH]c(C2CCN(S(=O)(=O)Cc3ccccc3)CC2)nc2c1nnn2Cc1ccccc1Cl | inactive
28 | N#CC(c1ccc(Cl)cc1)c1ccc2c(C(F)(F)F)cc(C(F)(F)F)nc2n1 (stereo unspecified) | inconclusive [activator, full curve, poor fit]
29 | Cc1c(C(=O)N2CCC(C)CC2)oc2ccc3c(c12)C(O)CC1(CCCCC1)O3 (stereo unspecified) | inconclusive [activator, partial curve, poor fit]
30 | COCC(=O)N1CCC(Oc2ccc(C(=O)NC(C)c3nc(C)sc3C)cc2)CC1 (stereo unspecified) | inactive
31 | Cc1cc(NC(=O)CSc2nc3cc4c(cc3c(=O)n2CCc2ccccc2)OCO4)no1 | inconclusive [activator, partial curve, poor fit]
32 | CCn1c(=O)cc(OCC(=O)NCCc2ccc(OC)c(OC)c2)c2ccccc21 | inconclusive [activator, single point]
33 | CN(C)c1ccc(/C=N/N2C(=S)SC(C)(C)C2N(O)C(=O)Nc2ccc([N+](=O)[O-])cc2)cc1 (stereo unspecified) | inconclusive [activator, single point]
34 | CCN(CC(=O)Nc1c(F)cccc1F)C(=O)/C=C/c1cn(Cc2ccccc2)nc1-c1cccnc1 | inactive
35 | Cc1cccc(OCC(=O)Nc2cccc(C(=O)Nc3ccccc3C(=O)O)c2)c1 | inconclusive [activator, single point]
36 | COc1cccc(C2C(C(=O)c3cccs3)=C(O)C(=O)N2c2cc(C)on2)c1 (stereo unspecified) | inactive
37 | Cc1ccc(C2=NOC(C)(c3nnc(-c4ccc(F)cc4)o3)C2)cc1 (stereo unspecified) | inconclusive [activator, full curve, poor fit]
38 | CCc1cccc(NC(=O)COC(=O)C2CCN(c3ccc(C(F)(F)F)cn3)CC2)c1 | inconclusive [activator, partial curve, poor fit]
39 | Nc1nccc(/C=C/c2c(F)cccc2Cl)n1 | inactive
40 | CCCCN(CCCC)C(=O)CSc1nnc2n(C)c(=O)c3c4c(sc3n12)CCCC4 | inactive
41 | COC(=O)CCC/C=C1/SCC(NC(=O)c2ccccc2)C1=O (stereo unspecified) | inconclusive [activator, single point]
42 | CCCNC(=O)COC(=O)c1ccc(-c2ccccc2)cc1 | inconclusive [activator, partial curve, poor fit]
43 | CCN1CCN(Cc2cccc(Oc3ccc(Cl)cc3)c2)CC1 | active: 16.4 µM
44 | C=CC[C@H]1Cc2c(cccc2[N+](=O)[O-])[C@H](CC=C)N1 | inactive

Row | Compound | Potency
45 | COc1ccc(CCNC(=O)/C(C#N)=C/c2ccc(OCC(=O)NCC3CCCO3)cc2)cc1OC (stereo unspecified) | inconclusive [activator, partial curve]
46 | CC(C(=O)Nc1ccc(S(=O)(=O)N2CCCC2)cc1)N(C)Cc1ccc(F)cc1 (stereo unspecified) | inconclusive [activator, single point]
47 | Nc1ccc(C(=O)N2CCN(S(=O)(=O)c3ccc(Cl)cc3)CC2)cc1[N+](=O)[O-] | inconclusive [activator, full curve]
48 | Clc1ccc(CON/C=N/c2ncnc3sccc23)c(Cl)c1 | inconclusive [activator, partial curve, poor fit]
49 | CC(Sc1nnc(C2CC2)n1C1CC1)C(=O)Nc1ccc(C(N)=O)cc1 (stereo unspecified) | inactive
50 | COc1cc2c(cc1OC)C1(CCCC1)CNC2C (stereo unspecified) | inconclusive [activator, partial curve, poor fit]
51 | O=C(CCc1ccccc1)NC(c1cccs1)c1cc(Cl)c2cccnc2c1O (stereo unspecified) | inconclusive [activator, partial curve, poor fit]
52 | COc1ccccc1N1CCN(C(=O)COc2cc(C)cc(C)c2)CC1 | inactive
53 | Cn1c(=O)c2c(nc(NCc3ccc4c(c3)OCO4)n2Cc2ccc(F)cc2)n(C)c1=O | inconclusive [activator, single point]
54 | Cc1ccc(C(=O)N2CCOCC2)cc1S(=O)(=O)N1CCCCC1 | inactive
55 | O=[N+]([O-])c1ccc(/C=N/n2cnc3ccccc32)s1 | inconclusive [activator, single point]
56 | Cn1ccnc1C(=O)c1cc(SCC(=O)NCc2ccccc2)nc2ccccc12 | active: 14.6 µM
57 | CSC(=NC#N)N1CCN(C(=NC#N)SC)CC1 | inconclusive [activator, single point]
58 | CC(=O)c1ccc([C@@H]2C[C@]34CN(Cc5cccc(C(F)(F)F)c5)S(=O)(=O)[C@H]3C[C@H]2O4)cc1 | inconclusive [activator, partial curve, poor fit]
59 | COc1ccccc1NCC(=O)c1ccc(Cl)cc1 | inconclusive [activator, single point]
60 | CCOC(=O)c1c(NC(=O)c2ccc(N3C(=O)C4C5C=CC(C5)C4C3=O)cc2)sc2c1CCCC2 (stereo unspecified) | inconclusive [activator, full curve, poor fit]
61 | Nc1nc(C2CC2)c(Sc2sc(N)nc2C2CC2)s1 | inconclusive [activator, partial curve]
62 | Cn1c(=O)n(CC(=O)OCc2ccccc2)c(=O)c2c1nc1n2CCCN1C1CCCCC1 | active: 9.2 µM
63 | O=C(COc1ccc(Cl)cc1Cl)Nn1c(=S)[nH]c2ncccc2c1=O | inactive
64 | COc1ccc(/C(C)=N/OC/C(O)=C(\C#N)c2nc3ccccc3[nH]2)cc1 | inactive
65 | CC1(C)CC(=O)C(=Cc2cn(-c3ccccc3)nc2-c2ccc(Cl)cc2)C(=O)C1 | inconclusive [activator, partial curve, poor fit]
66 | O=S(=O)(Cc1ccc(Cl)cc1Cl)c1ccc(Cl)cc1 | active: 0.651 µM

Reference: PubChem BioAssay AID624296 (National Center for Advancing Translational Sciences (NCATS), 2012)
